Laboratory results reported in patent US5278152A, “2-formylbenzylphosphonic acid derivatives useful for the treatment of diseases caused by viruses” (priority 1989, dated 1994).
Like-named read-outs stand apart in the source and are kept apart here.

Test system: Friend leukemia virus
Type: in vivo, NMRI mice, female
Details: for Relative weight of the spleen: day 14 (dosage unit not given)
Protocol: A test for activity of chemotherapeutics for HIV infections in man causes difficulties, since no infection model in laboratory animals yet exists. Infection with other retroviruses therefore has to be resorted to for testing chemotherapeutics. […] In the untreated control animals, a distinct enlargement of the spleen and liver developed as a symptom of the infection in the course of 2 weeks. Treatment was carried out over 10 days, starting 48 hours after the infection. On the 14th day of the experiment, the animals were sacrificed and dissected. The spleen was removed and weighed. As a measurement parameter of the therapeutic activity, the weight of the spleen of the treated animals was related to that of the untreated infection control.
In the case of uninfected adult laboratory mice (20-24 g body weight), the spleen weighed about 1% of the body weight or less, while in the case of infected animals, the spleen attained about 10% of the body weight at the end of the experiment.
The treatment was started 40 h after infection. The substances indicated were administered orally or intraperitoneally once a day. 14 days after infection, the animals were sacrificed by dislocation and the spleens were removed. The weight of the spleens was determined. As a measurement parameter of the therapeutic activity, the weight of the spleen of the animals which had been treated with compounds A and D was related to that of the untreated infection control.
Suramin and azidothymidine (AZT) were used as standard substances.

[1] = ip, 50, once a day over 10 days (dosage unit not given)
[2] = ip, 50, once a day over 10 days

Row | Compound | Survival rate (ip, 25, once a day over 10 days (dosage unit not given)) [%] | Relative weight of the spleen (ip, 25, once a day over 10 days) | Survival rate [1] [%] | Relative weight of the spleen [2] | Survival rate (po, 17.5, once a day over 10 days (dosage unit not given)) [%] | Relative weight of the spleen (po, 17.5, once a day over 10 days) | Survival rate (po, 81, once a day over 10 days (dosage unit not given)) [%] | Relative weight of the spleen (po, 81, once a day over 10 days) | Survival rate (po, 15.5, once a day over 10 days (dosage unit not given)) [%] | Relative weight of the spleen (po, 15.5, once a day over 10 days)
1 | CCOP(=O)(Cc1ccccc1C=O)OCC [A, diethyl 2-formylbenzylphosphonate] | 90 | 6.27 % of body weight | 100 | 6.52 % of body weight | 100 | 7.74 % of body weight | 100 | 5.67 % of body weight |  | 
2 | Cc1cn([C@H]2C[C@H](N=[N+]=[N-])[C@@H](CO)O2)c(=O)[nH]c1=O [AZT, azidothymidine, reference compound] |  |  | 100 | 7.60 % of body weight |  |  |  |  | 100 | 3.26 % of body weight
3 | CCOP(=O)(Cc1ccccc1C=NNC(N)=S)OCC [D, Diethyl 2-formylbenzylphosphonate thiosemicarbazone] |  |  | 100 | 7.60 % of body weight |  |  |  |  |  | 
4 | Cc1ccc(C(=O)Nc2ccc(S(=O)(=O)O)c3cc(S(=O)(=O)O)cc(S(=O)(=O)O)c23)cc1NC(=O)c1cccc(NC(=O)Nc2cccc(C(=O)Nc3cc(C(=O)Nc4ccc(S(=O)(=O)O)c5cc(S(=O)(=O)O)cc(S(=O)(=O)O)c45)ccc3C)c2)c1 [Suramin, reference compound] |  |  | 70 | 6.06 % of body weight |  |  |  |  |  | 
